Values quoted from earlier work in publication PMC11006913.
Positions count from the first letter of the chain named. Some of the results follow.

Assays:
Settings in all cases: PBM; conditions not shown; double strand, one strand shown; scale: upbm affinity estimate (log intensity, higher = more binding, comparable within an allelic series)
PBX4 (Homo sapiens) = target: T1, PBX4 (Homo sapiens) (UniProt Q9BYU1)
T1 sequence: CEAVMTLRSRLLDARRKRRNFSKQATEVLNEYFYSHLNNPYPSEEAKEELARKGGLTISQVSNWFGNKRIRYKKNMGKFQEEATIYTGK

[1] = target: T2, PBX4 R215Q (Homo sapiens) (UniProt Q9BYU1)
T2 sequence: T1 sequence with R19Q

[2] = target: PITX2 L100Q (Homo sapiens) (UniProt Q99697)
[3] = target: PITX2 R108H (Homo sapiens) (UniProt Q99697)
[4] = target: PITX2 R130W (Homo sapiens) (UniProt Q99697)
[5] = target: PROP1 R112Q (Homo sapiens) (UniProt O75360)
Chain of UniProt O75360 (O75360 56-141 R112Q): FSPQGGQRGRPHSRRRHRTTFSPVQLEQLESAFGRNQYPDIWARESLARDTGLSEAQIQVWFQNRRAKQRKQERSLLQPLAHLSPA

Sequence: CTCGTCAC [8-mer CTCGTCAC]
- binding signal (PBX4 (Homo sapiens)): 10.9
- binding signal [1]: 10.2

Sequence: AAAGGGCT [8-mer AAAGGGCT]
- binding signal (PBX4 (Homo sapiens)): 9.86
- binding signal [1]: 9.82

Sequence: CACGACAC [8-mer CACGACAC]
- binding signal (PBX4 (Homo sapiens)): 9.91
- binding signal [1]: 9.9

Sequence: ACCAGTTC [8-mer ACCAGTTC]
- binding signal (PBX4 (Homo sapiens)): 9.89
- binding signal [1]: 9.83

Sequence: GACCTCCC [8-mer GACCTCCC]
- binding signal (PBX4 (Homo sapiens)): 9.64
- binding signal [1]: 9.78

Sequence: AGGGTTTC [8-mer AGGGTTTC]
- binding signal (PBX4 (Homo sapiens)): 9.99
- binding signal [1]: 9.98

Sequence: ATGTCAAA [8-mer ATGTCAAA]
- binding signal (PBX4 (Homo sapiens)): 10.8
- binding signal [1]: 10.1

Sequence: ACATATCA [8-mer ACATATCA]
- binding signal (PBX4 (Homo sapiens)): 10.8
- binding signal [1]: 10.3

Sequence: CGGGATGC [8-mer CGGGATGC]
- binding signal (PBX4 (Homo sapiens)): 9.77
- binding signal [1]: 9.76

Sequence: CATCAATA [8-mer CATCAATA]
- binding signal (PBX4 (Homo sapiens)): 10.8
- binding signal [1]: 10.2

Sequence: CAAGAGAG [8-mer CAAGAGAG]
- binding signal (PBX4 (Homo sapiens)): 9.91
- binding signal [1]: 9.87

Sequence: AACCTGGG [8-mer AACCTGGG]
- binding signal (PBX4 (Homo sapiens)): 9.71
- binding signal [1]: 9.75

Sequence: CAGCAGGC [8-mer CAGCAGGC]
- binding signal (PBX4 (Homo sapiens)): 9.8
- binding signal [1]: 9.76

Sequence: ATTGACGA [8-mer ATTGACGA]
- binding signal (PBX4 (Homo sapiens)): 10.8
- binding signal [1]: 10.2

Sequence: GCATGTCA [8-mer GCATGTCA]
- binding signal (PBX4 (Homo sapiens)): 11
- binding signal [1]: 10.3

Sequence: AATATACT [8-mer AATATACT]
- binding signal (PBX4 (Homo sapiens)): 10
- binding signal [1]: 9.93

Sequence: GGAATTCC [8-mer GGAATTCC]
- binding signal (PBX4 (Homo sapiens)): 9.95
- binding signal [1]: 9.87

Sequence: AAGATCCG [8-mer AAGATCCG]
- binding signal (PBX4 (Homo sapiens)): 10
- binding signal [1]: 9.84

Sequence: CTCATCAA [8-mer CTCATCAA]
- binding signal (PBX4 (Homo sapiens)): 10.8
- binding signal [1]: 10.2

Sequence: AGAGAGTG [8-mer AGAGAGTG]
- binding signal (PBX4 (Homo sapiens)): 9.91
- binding signal [1]: 9.85

Sequence: CTTGATGA [8-mer CTTGATGA]
- binding signal (PBX4 (Homo sapiens)): 10.7
- binding signal [1]: 10.1

Sequence: CGTCAAAA [8-mer CGTCAAAA]
- binding signal (PBX4 (Homo sapiens)): 10.9
- binding signal [1]: 10.3

Sequence: AAGTGTCC [8-mer AAGTGTCC]
- binding signal (PBX4 (Homo sapiens)): 9.99
- binding signal [1]: 9.93

Sequence: CCTCTGCA [8-mer CCTCTGCA]
- binding signal (PBX4 (Homo sapiens)): 9.87
- binding signal [1]: 9.86

Sequence: TCCATCAA [8-mer TCCATCAA]
- binding signal (PBX4 (Homo sapiens)): 10.8
- binding signal [1]: 10.2

Sequence: CCTCCGAA [8-mer CCTCCGAA]
- binding signal (PBX4 (Homo sapiens)): 9.8
- binding signal [1]: 9.81

Sequence: CCGGGGTC [8-mer CCGGGGTC]
- binding signal (PBX4 (Homo sapiens)): 9.5
- binding signal [1]: 9.69

Sequence: CACAGTCG [8-mer CACAGTCG]
- binding signal (PBX4 (Homo sapiens)): 9.9
- binding signal [1]: 9.87

Sequence: ACGTCAAA [8-mer ACGTCAAA]
- binding signal (PBX4 (Homo sapiens)): 10.8
- binding signal [1]: 10.2

Sequence: AGCGAGAG [8-mer AGCGAGAG]
- binding signal (PBX4 (Homo sapiens)): 9.92
- binding signal [1]: 9.93

Sequence: AGGCGGGC [8-mer AGGCGGGC]
- binding signal (PBX4 (Homo sapiens)): 9.7
- binding signal [1]: 9.68

Sequence: ATGATTGA [8-mer ATGATTGA]
- binding signal (PBX4 (Homo sapiens)): 10.8
- binding signal [1]: 10.3

Sequence: GGTAGCGA [8-mer GGTAGCGA]
- binding signal (PBX4 (Homo sapiens)): 9.95
- binding signal [1]: 9.88

Sequence: ATCATCAT [8-mer ATCATCAT]
- binding signal (PBX4 (Homo sapiens)): 10.6
- binding signal [1]: 10.3

Sequence: AGGCCTAC [8-mer AGGCCTAC]
- binding signal (PBX4 (Homo sapiens)): 9.97
- binding signal [1]: 9.8

Sequence: CGTGTCGC [8-mer CGTGTCGC]
- binding signal (PBX4 (Homo sapiens)): 9.94
- binding signal [1]: 9.8

Sequence: CCCAGACA [8-mer CCCAGACA]
- binding signal (PBX4 (Homo sapiens)): 9.87
- binding signal [1]: 9.85

Sequence: GACAATGC [8-mer GACAATGC]
- binding signal (PBX4 (Homo sapiens)): 9.99
- binding signal [1]: 9.93

Sequence: ATGGTTCG [8-mer ATGGTTCG]
- binding signal (PBX4 (Homo sapiens)): 9.95
- binding signal [1]: 9.94

Sequence: GTCGGTGA [8-mer GTCGGTGA]
- binding signal (PBX4 (Homo sapiens)): 9.98
- binding signal [1]: 9.92

Sequence: ATTGATGA [8-mer ATTGATGA]
- binding signal (PBX4 (Homo sapiens)): 10.8
- binding signal [1]: 10.2

Sequence: AGAGCCAG [8-mer AGAGCCAG]
- binding signal (PBX4 (Homo sapiens)): 9.81
- binding signal [1]: 9.81

Sequence: TCAAATCA [8-mer TCAAATCA]
- binding signal (PBX4 (Homo sapiens)): 10.6
- binding signal [1]: 10.2

Sequence: CATGTCAC [8-mer CATGTCAC]
- binding signal (PBX4 (Homo sapiens)): 10.9
- binding signal [1]: 10.3

Sequence: CCGCACGG [8-mer CCGCACGG]
- binding signal (PBX4 (Homo sapiens)): 9.8
- binding signal [1]: 9.77

Sequence: CCGCGATA [8-mer CCGCGATA]
- binding signal (PBX4 (Homo sapiens)): 9.94
- binding signal [1]: 9.89

Sequence: CGACCCTA [8-mer CGACCCTA]
- binding signal (PBX4 (Homo sapiens)): 9.73
- binding signal [1]: 9.78

Sequence: TCCGCAGA [8-mer TCCGCAGA]
- binding signal (PBX4 (Homo sapiens)): 9.88
- binding signal [1]: 9.83

Sequence: GCAGCACC [8-mer GCAGCACC]
- binding signal (PBX4 (Homo sapiens)): 9.78
- binding signal [1]: 9.88

Sequence: ATACATCA [8-mer ATACATCA]
- binding signal (PBX4 (Homo sapiens)): 10.6
- binding signal [1]: 10.2

Sequence: CATCCGAC [8-mer CATCCGAC]
- binding signal (PBX4 (Homo sapiens)): 9.99
- binding signal [1]: 9.85

Sequence: ATTTGTAA [8-mer ATTTGTAA]
- binding signal [2]: 9.53
- binding signal [3]: 8.91
- binding signal [4]: 8.78

Sequence: CTGAATTA [8-mer CTGAATTA]
- binding signal [2]: 10.1
- binding signal [3]: 8.98
- binding signal [4]: 8.71

Sequence: GATTACGC [8-mer GATTACGC]
- binding signal [2]: 10.2
- binding signal [3]: 8.9
- binding signal [4]: 8.57

Sequence: TAAGCTGA [8-mer TAAGCTGA]
- binding signal [2]: 10.2
- binding signal [3]: 8.78
- binding signal [4]: 8.53

Sequence: ATTTAAGA [8-mer ATTTAAGA]
- binding signal [2]: 9.84
- binding signal [3]: 8.8
- binding signal [4]: 8.63

Sequence: ACATCAAT [8-mer ACATCAAT]
- binding signal (PBX4 (Homo sapiens)): 10.9
- binding signal [1]: 10.2
- binding signal [5]: 12

Sequence: AGACAAGG [8-mer AGACAAGG]
- binding signal (PBX4 (Homo sapiens)): 9.97
- binding signal [1]: 9.84

Sequence: GACTAATC [8-mer GACTAATC]
- binding signal [2]: 10.8
